Data taken from PubChem BioAssay AID686971 (National Center for Advancing Translational Sciences (NCATS), 2013).
Among all 360,000 compounds or so, about 7,500 (2.1%) were called active. The shares of active, inactive and inconclusive entries below differ from those in the screen. Calls come from the whole dose curve; as a rule, active = well fitted cell-killing curve with a large enough effect; inconclusive = small, poorly fitted or top-dose-only effect, or effect the other way, or another doubt; inactive = no such curve, though single readings can be large or run the other way. Potencies of inconclusive entries are left out as doubtful fits.

Assay: qHTS for induction of synthetic lethality in tumor cells producing 2HG: qHTS for the HT-1080-IDH1KD cell line;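 for activity, negative = toxicity: 0% = DMSO wells and -100% = cell-free medium wells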
Settings: HT-1080 IDH1 knockdown viability, ATP luminescence, 48 h; activity, negative = toxicity: at 46.1 µM (top of the series) unless noted
Procedure, shortened: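 Assay cells: HT-1080 with IDH1 knockdown, 750 per well, RPMI/5% FBS. Exposure: 48 h at 37 °C following 2 h pre-incubation. Read: CellTiter-Glo luminescence; fitted concentration-response, curve class assigned.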
Potency is the fitted concentration of half-maximal effect; tags give direction and shape of the fitted curve.

Structure (SMILES)	activity, negative = toxicity	Potency
CC(C)n1c(N2CCN(C(=O)c3cccs3)CC2)nc2ccccc21	inactive: -3.43%	–
Cc1cc(C)n2nc(C(=O)Nc3ccc4c(c3)OCO4)cc2n1	inactive: 12.7%	–
COc1cccc(-c2cc(=O)c3cc(NC(C)=O)ccc3[nH]2)c1	–	inconclusive [cytotoxic, partial curve]
CC(N)c1csc(NC(=O)Nc2cccc(C(F)(F)F)c2)n1 (stereo unspecified)	–	active: 23.1 µM
COC(=O)c1c(NC(C)=O)sc2c1CCN(Cc1ccccc1)C2	inactive: -3.94%	–
Cc1ccc([C@H]2C[C@H](n3cc(C4CC4)nn3)[C@@H](O)CN2CC2CCCCC2)cc1	–	inconclusive [cytotoxic, single point]
O=C(c1cccc(S(=O)(=O)NCc2ccccc2)c1)N1CCN(c2ccccc2)CC1	–	inconclusive [cytotoxic, single point]
Cn1sc(=O)c2cc(S(=O)(=O)NC3CC3)ccc21	–	inconclusive [cytotoxic, single point]
CCN(CC)c1ccc(/C=N/NC(=O)c2ccccn2)cc1	–	inconclusive [cytotoxic, single point]
CCOCCN1CCN(C2c3ccccc3CSc3ccccc32)CC1 (stereo unspecified)	–	inconclusive [cytotoxic, partial curve]
CN1CCc2c(sc(NC(=O)c3ccc(S(=O)(=O)N4CCCCCC4)cc3)c2C(N)=O)C1	–	active: 20.6 µM
Cc1ccc(-n2c(SCC(=O)Nc3cccc(S(N)(=O)=O)c3)nc3ccccc32)cc1	inconclusive: -32.1% [cytotoxic]	–
CCOP(=O)(OCC)c1nc(-c2cccc([N+](=O)[O-])c2)oc1N1CCCCC1	inactive: 0.474%	–
CC(=O)CCc1ccccc1	inactive: 8.42%	–
CCOC(=O)c1c(NC(C)=O)sc2c1CCCNC2=O	inactive: 0.454% [at 9.24 µM]	–
O=C(Nc1cccc(C(F)(F)F)c1)c1ccc2sc([C@H]3C[C@H](O)[C@@H](CO)O3)nc2c1	–	inconclusive [cytotoxic, partial curve]
C/C(=N\NC(=O)c1cccc2ccccc12)c1cccnc1	–	inconclusive [cytotoxic, single point]
C=CCn1c(N)c(C(=O)OC(C)CC)c2nc3ccccc3nc21 (stereo unspecified)	inactive: -3.04%	–
COCCn1c(SC(C)C(=O)Nc2ccc(N3CCOCC3)cc2)nnc1-c1ccncc1 (stereo unspecified)	inactive: -0.267%	–
CCOC(=O)N(C)c1c(CC)nc2c(OCc3ccc(Cl)cc3)cccn12	–	inconclusive [cytotoxic, single point]
CCOC(=O)C1CCN(C(=O)c2ccc3c(=O)n4nc(Nc5ccccc5CC)sc4nc3c2)CC1	–	inconclusive [cytotoxic, single point]
C/C(=N\Nc1nc(C)c(C)s1)c1ccc([N+](=O)[O-])cc1	–	active: 16.4 µM
O=C(COc1ccc(Cl)cc1Cl)Nc1c(-c2cccs2)nc2ccccn12	–	inconclusive [cytotoxic, single point]

Structure (SMILES)	activity, negative = toxicity	Potency
c1ccc(-c2nc(NCc3cccnc3)c3oc4ccccc4c3n2)cc1	–	inconclusive [cytotoxic, partial curve]
CN(C)c1nc(NCc2ccccc2)nc(N/N=C/c2cccc(Br)c2)n1	–	inconclusive [cytotoxic, single point]
N#CC1=C(N)C(C#N)(C#N)[C@H](c2c(F)cccc2F)[C@H]2CC3(CC=C12)OCCO3	–	active: 10 µM
Cc1ccccc1-c1csc(C(O)c2cccc(Cl)c2)n1 (stereo unspecified)	–	inconclusive [cytotoxic, single point]
COC(=O)c1ccc(NC(=S)NCCc2ccccc2)cc1	–	inconclusive [cytotoxic, single point]
O=C(C1CCC(CNc2c(N3CCCCC3)c(=O)c2=O)CC1)N1CCCC1 (stereo unspecified)	inactive: -0.435%	–
OCCC1CN(Cc2ccc(C(F)(F)F)cc2)CCN1Cc1ccccc1 (stereo unspecified)	–	inconclusive [cytotoxic, single point]
O=C(C[C@@H]1C/C=C/CC[C@H](Cc2ccc(F)cc2)C(=O)OC[C@@H](Cc2ccccc2)NC1=O)N[C@H](CO)Cc1ccccc1	–	inconclusive [cytotoxic, single point]
C[C@H]1CN([C@@H](C)CO)C(=O)CCCn2nncc2CO[C@@H]1CN(C)C(=O)c1ccc2ccn(C)c2c1	inactive: 0.783%	–
CCC[C@@H](CN[C@@H](CNC)C(C)C)NCCCCc1ccccc1	–	inconclusive [cytotoxic, single point]
CC(OC(=O)CSc1ccc([N+](=O)[O-])cc1)C(=O)NCc1ccccc1 (stereo unspecified)	–	inconclusive [cytotoxic, partial curve]
O=[N+]([O-])c1c(O)c(Cl)cc(Cl)c1Cl (tested in a mixture with another compound)	–	inconclusive [cytotoxic, single point]
CCCc1nnc(NC(=O)Cn2c(=O)oc3cc(Br)ccc32)s1	–	inconclusive [cytotoxic, full curve]
C=CC[n+]1c(-c2ccc(Cl)cc2Cl)csc1Nc1ccc(NC(C)=O)cc1	–	active: 18.4 µM
O=C(NCc1cccnc1)/C(=C/c1ccc(-c2ccc(Cl)cc2)o1)S(=O)(=O)c1ccccc1	–	active: 5.62 µM
Cc1nnc(N/N=C/c2ccccc2O)n1N	–	inconclusive [cytotoxic, single point]
CCCCCc1c(-c2ccc(Cl)cc2)ncn1CCc1ccccc1OC	–	active: 16.4 µM
CN(C)C1=NCCN1CCC1CCCC1	inactive: -1.16%	–
C[C@@H]1CN([C@H](C)CO)C(=O)CCCn2nncc2CO[C@@H]1CN(C)C(=O)Nc1ccc(N2CCCCC2)cc1	inactive: 9.91%	–
O=c1n(Cc2ccccc2Cl)c2sc3c(c2c2ncnn12)CCCC3	inactive: 0.466%	–
O=C(NCCc1ccccc1)c1ccc(-c2ccccc2C(F)(F)F)o1	–	inconclusive [cytotoxic, partial curve]
CC1CN(c2nc3ccccc3nc2SCC(=O)Nc2ccc(F)cc2)CC(C)O1 (stereo unspecified)	inactive: -9.96%	–
CCCCn1nnnc1C1(C)CCC(=O)N1Cc1cccc(F)c1 (stereo unspecified)	inactive: 21.4%	–
